# Laboratory results as given in the supplement of paper PMC3334620.
# In all, about 33,000 sequences were measured (“E-score (-0.5 to 0.5)”: median about -0.043, highest 2% from about 0.37 on). The list shows a part of the results.
# Molecular target: T1, Upc2 (UniProt Q12151)
# T1 sequence: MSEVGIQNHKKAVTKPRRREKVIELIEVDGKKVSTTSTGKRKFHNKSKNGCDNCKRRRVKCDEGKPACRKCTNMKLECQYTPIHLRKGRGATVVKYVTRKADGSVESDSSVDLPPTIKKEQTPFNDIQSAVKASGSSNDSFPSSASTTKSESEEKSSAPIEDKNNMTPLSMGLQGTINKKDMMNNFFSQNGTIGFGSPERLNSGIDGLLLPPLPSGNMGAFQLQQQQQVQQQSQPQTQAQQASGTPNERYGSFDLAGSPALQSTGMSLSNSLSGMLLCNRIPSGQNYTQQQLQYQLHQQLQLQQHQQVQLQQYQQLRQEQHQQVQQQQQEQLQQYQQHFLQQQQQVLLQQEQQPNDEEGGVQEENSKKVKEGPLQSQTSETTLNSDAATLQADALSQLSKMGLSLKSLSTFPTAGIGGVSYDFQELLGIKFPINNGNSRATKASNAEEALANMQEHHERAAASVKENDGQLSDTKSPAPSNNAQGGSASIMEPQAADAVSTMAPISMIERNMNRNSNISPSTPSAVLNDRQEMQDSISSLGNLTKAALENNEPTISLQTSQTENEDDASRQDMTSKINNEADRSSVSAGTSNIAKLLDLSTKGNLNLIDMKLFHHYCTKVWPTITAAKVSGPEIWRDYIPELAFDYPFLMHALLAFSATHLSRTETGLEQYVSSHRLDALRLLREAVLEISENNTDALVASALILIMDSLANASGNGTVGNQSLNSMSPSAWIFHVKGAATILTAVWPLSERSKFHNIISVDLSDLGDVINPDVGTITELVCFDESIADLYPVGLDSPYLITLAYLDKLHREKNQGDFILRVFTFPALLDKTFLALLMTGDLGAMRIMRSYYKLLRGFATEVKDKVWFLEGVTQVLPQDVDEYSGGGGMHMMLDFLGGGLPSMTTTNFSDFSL
# Assay: PBM E-score (8-mer binding enrichment) (E-score (-0.5 to 0.5)); higher = stronger / more preferred TF binding; most listed sequences are background and not binding sites
# Details: protein concentration: 200 nM; construct: GST-full length
# Procedure, shortened: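 Detection of bound protein used fluorescent anti-GST, with scans normalised by masliner. The proteins were GST-tagged yeast transcription factors applied at about 100-200 nM to universal all-10-mer Agilent arrays made double-stranded by primer extension. Each ungapped eight-base word, pooled with its reverse complement, was scored with an E-score from the Universal PBM Analysis Suite.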
row,Sequence,PBM E-score
1,GACTACGA,0.218
2,GAAGCCCA,-0.121
3,GATGTACC,-0.0576
4,AACCGGGC,0.0434
5,CGGCGTGA,-0.232
6,CCTACCAA,-0.205
7,AGGGTGCA,-0.29
8,CCCTGCGA,-0.116
9,CGTCGCAA,0.149
10,CGTCGGCA,0.0991
11,AAATCACC,-0.095
12,GCACAGGA,-0.182
13,GTCAAAGA,0.0912
14,AATCCGCT,-0.101
15,AACTTGAA,-0.106
16,CTTTCTGA,-0.152
17,TACGTAGA,0.18
18,ACAGCTCA,-0.185
19,CATTCCGC,-0.213
20,ATAGACAG,-0.0478
21,GGATATAC,0.156
22,CAGCTCAA,-0.165
23,ATTTGGCC,-0.191
24,AACGCCTT,-0.0624
25,ATCATAAT,0.0818

row,Sequence,PBM E-score
1,CGGCGTTA,0.128
2,CTCGGTTC,0.156
3,AAGTATTC,-0.0945
4,AGAGTGCT,0.00309
5,AGTACAAG,-0.052
6,AACACCAA,0.0411
7,ATCATTTC,-0.0212
8,ATACAACG,0.0599
9,CTAAAACC,-0.156
10,CGGCCTAG,-0.233
11,ACGTACGT,0.293
12,ACTACTCA,-0.131
13,ACCGAGCG,0.268
14,CGCGTCGA,-0.0357
15,ACAGCACG,0.0813
16,AAAGGCAC,-0.202
17,AGGCCTGG,-0.0671
18,ACACAGCG,0.104
19,TAGTCCAA,-0.158
20,CGTTCCAC,0.331
21,AGTACTGG,-0.0923
22,ACATCGTA,0.425
23,ATTAAAGA,-0.00799
24,TCGTTCCA,0.46
25,ATGTTTGC,-0.103

row,Sequence,PBM E-score
1,ACATACGA,0.476
2,TCCGTGCA,-0.114
3,GTGATGGA,-0.181
4,CTTAATTA,-0.107
5,CAGACTAC,0.0927
6,CAACCTTA,-0.207
7,ATAGACTC,-0.0791
8,CAAGCCAA,0.12
9,GAGTAGCA,-0.13
10,CCAAGTTA,-0.193
11,TTCCGAAA,-0.00315
12,ATTTAATC,-0.00608
13,GGAATAAA,-0.0324
14,CGGACCTA,-0.0897
15,GGGTCCAA,0.0556
16,ATCATAAA,-0.144
17,TAAGTACA,0.0118
18,ACACTCCC,-0.214
19,CATTTTCA,-0.0947
20,CAGGAATA,-0.136
21,GGTCCGTA,0.308
22,ATCAGCAG,-0.206
23,ACAGCGTC,0.0232
24,CACTGGAG,-0.333
25,AGGAGCCT,-0.12

row,Sequence,PBM E-score
1,ACATCCGG,0.0179
2,GCTTGGGA,-0.177
3,CGGACGCC,-0.0318
4,AATGGCCT,-0.147
5,GGATGGAA,-0.0401
6,CGTCTGAA,-0.0488
7,AATTTTAA,0.123
8,GGTTCGCA,0.122
9,CTGGCTTA,-0.142
10,CTGTACCC,-0.141
11,GGTAAAGA,0.0863
12,AATGAGTA,0.123
13,GCGGTGCA,-0.064
14,ATAGCCAA,0.109
15,ATTAAATG,-0.098
16,AACTGGGT,-0.217
17,AAATGCCC,-0.246
18,ACCTTCCG,0.0456
19,ACGATTTG,0.28
20,CTATTAGC,0.0438
21,CGGGCCGA,-0.134
22,CCGAATGC,-0.0189
23,TCCTAGCA,-0.224
24,TTCAAGAA,0.109
25,GGTTGTAA,-0.225

row,Sequence,PBM E-score
1,AGTCAGGA,-0.211
2,AGGGAAGC,-0.182
3,TCGAGAAA,-0.0489
4,GCGGGGAA,-0.012
5,CTGCCAAG,0.00123
6,AGAAAAAG,-0.233
7,GAAGGCCC,0.0228
8,CCTTCCCG,-0.15
9,ATCGCGGG,0.0563
10,AGTCTGAG,-0.181
11,AGTTAAGG,-0.14
12,ACATAGCA,-0.217
13,ACTGCTCG,0.135
14,CTATTTAA,-0.00788
15,TAGGAATA,-0.197
16,GTCTTTAA,0.00736
17,CCGTATAG,0.485
18,ATTTTATG,-0.0194
19,CTACGTGC,-0.0358
20,CCAGTACG,0.312
21,GCAGAAGA,-0.0226
22,AGACATAA,0.00996
23,TATCGGAA,0.133
24,GTCGCTTA,0.396
25,GTGCCCTA,-0.129

row,Sequence,PBM E-score
1,AATCCCAG,-0.149
2,CTAGCGAC,-0.0103
3,AGTCCATC,0.0877
4,GAGTACGA,0.375
5,GCCATGGA,-0.21
6,TCGGCTCA,-0.0257
7,GCAGTATA,0.219
8,CGTCGCGA,0.182
9,ACCTGGCT,-0.0587
10,AACATGAC,-0.169
11,AATGTTCA,-0.0874
12,CAAGAAGG,-0.178
13,GTGGACCA,-0.182
14,CGGGGGCC,0.111
15,CACTCTGC,-0.0292
16,AGACTGAT,-0.166
17,GGTCGGTA,0.221
18,CGTCAAGC,-0.212
19,GTCCGTGA,-0.105
20,AGGACTAG,-0.0925
21,GATGCACC,-0.224
22,GATTGCCC,-0.0861
23,CGTTTGTC,0.34
24,CTAACCAC,0.0848
25,ACTGCTTC,-0.0978

row,Sequence,PBM E-score
1,AACTCGCG,0.134
2,CTAATACC,-0.0448
3,GCCTACTA,0.005
4,ATTAGTTG,-0.0363
5,ACTAGTCC,-0.332
6,GGGTAAGA,-0.0544
7,TACCATCA,-0.0383
8,CGCTTTGA,0.00704
9,AGGGGACC,-0.239
10,ATAATAAA,0.0566
11,TAGACTCA,-0.105
12,ACTCGGTC,0.0379
13,GCGCAAGC,-0.0448
14,ACGCTTAA,0.135
15,ACACCAGC,-0.111
16,CGACGTAA,0.218
17,GTCCCCGA,-0.228
18,CGACTCAA,0.197
19,ACCGGTAT,-0.049
20,CACAGCAA,0.164
21,ACTGCTAT,0.0625
22,CGGTAAAC,0.206
